Some of the results follow. Sequences were assembled here from the parent chain. Values near 0.05 are background.
B1: TEV protease; numbered along this chain (parent)
chain: MGESLFKGPRDYNPISSSICHLTNESDGHTTSLYGIGFGPFIITNKHLFRRNNGTLVVQSLHGVFKVKDTTTLQQHLVDGRDMIIIRMPKDFPPFPQKLKFREPQREERICLVTTNFQTKSMSSMVSDTSCTFPSGDGIFWKHWIQTKDGQCGSPLVSTRDGFIVGIHSASNFTNTNNYFTSVPKNFMELLTNQEAQQWVSGWRLNADSVLWGGHKVFMVKPEEPFQPVKEATQL

Variants of: B1
Test: raw area under fraction-flipped curve 0-4 h after induction (AUC4h, not background-subtracted), DNA-recorder readout of cleavage of the substrate (dimensionless); higher = more cleavage of the substrate by the protease variant
Conditions: temperature: 34 °C; time window: 0-4 h after rhamnose induction
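Also: Bxb1 expression induced with 0.2% (w/v) L-rhamnose at OD600 near 0.5, cultures sampled hourly, flipped fraction per protease–substrate barcode pair counted by paired-end Illumina sequencing.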

Row | Variant | area with substrate EALYFQS | area with substrate ECLYFQS | area with substrate EDLYFQS | area with substrate EELYFQS | area with substrate EILYFQS | area with substrate EKLYFQS | area with substrate ERLYFQS | area with substrate ESLYFQS | area with substrate EVLYFQS | area with substrate EWLYFQS | area with substrate EGLYFQS | area with substrate EHLYFQS | area with substrate EMLYFQS | area with substrate EQLYFQS | area with substrate EFLYFQS | area with substrate ETLYFQS | area with substrate ELLYFQS | area with substrate EPLYFQS | area with substrate EYLYFQS
1 | MGESLFKGPRDYNPISSSICHLTNESDGHTTSLYGIGFGPFIITNKHLFRRNNGTLVVQSLHGVFKVKDTTTLQQHLVDGRDMIIIRMPKDFPPFPQKLKFREPQREERICLVTTNFQTKSMSSMVSDTSCTFPSGDGIFWKHWIQTKDGQCGSPLVSTRDGFIVGIHSASNFTNTNNYFTSVPKNFMELLTNQEAQQWVSGWRLNADSVLWGGHKVFMAKPEEPFQPVKEATQL [V220A] | 0.135 | 0.128 | 0.152 | 0.117 | 0.0972 | 0.097 | 0.0775 | 0.109 | 0.0938 | 0.0991 |  |  |  |  |  |  |  |  | 
2 | MGESLFKGPRDYNPISSSICHLTNESDGHTTSLYGIGFGPFIITNKHLFRRNNGTLVVQSLHGVFKVKDTTTLQQHLVDGRDMIIIRMPKDFPPFPQKLKFREPQREERICLVTTNFQTKSMSSMVSDTSCTFPSGDGIFWKHWIQTKDGQCGSPLVSTRDGFIVGIHSASNFTNTNNYFTSVPKNFMELLTNQEAQQWVSGWRLNADSVLWGGRKVFMVKPEEPFQPVKEATQL [H215R] | 0.0615 | 0.0965 |  | 0.0805 |  | 0.0666 | 0.0618 | 0.0725 |  | 0.0877 | 0.0315 | 0.0868 | 0.0808 | 0.0765 |  |  |  |  | 
3 | MGESLFKGPRDYNPISSSICHLTNESDGHTTSLYGIGFGPFIITNKHLFRRNNGTLVVQSLHGVFKVKDTTTLQQHLVDGRDMIIIRMPKDFPPFPQKLKFREPQREERICLVTTNFQTKSMSSMVSDTSCTFPSGDGIFWKHWIQTKDGQCGSPLVSTRDGFIVGIHSASNFTNTNNYFTSVPKNFMELLTNQEAQQWVSGWRLNADSVLWGGEKVFMVKPEEPFQPVKEATQL [H215E] | 0.072 | 0.0567 | 0.0666 | 0.0692 | 0.0666 | 0.0455 | 0.0651 | 0.0679 | 0.0587 |  | 0.0644 | 0.06 | 0.0614 |  | 0.0596 | 0.0686 |  |  | 
4 | MGESLFKGPRDYNPISSSICHLTNESDGHTTSLYGIGFGPFIITNKHLFRRNNGTLVVQSLHGVFKVKDTTTLQQHLVDGRDMIIIRMPKDFPPFPQKLKFREPQREERICLVTTNFQTKSMSSMVSDTSCTFPSGDGIFWKHWIQTKDGQCGSPLVSTRDGFIVGIHSASNFTNTNNYFTSVPKNFMELLTNQEAQQWVSGWRLNADSVLWGGHKVFMVKPCEPFQPVKEATQL [E223C] | 0.107 | 0.0952 | 0.131 | 0.0821 | 0.0994 |  | 0.0825 | 0.0918 | 0.0838 | 0.0913 | 0.089 |  | 0.104 | 0.0781 |  |  | 0.0919 |  | 
5 | MGESLFKGPRDYNPISSSICHLTNESDGHTTSLYGIGFGPFIITNKHLFRRNNGTLVVQSLHGVFKVKDTTTLQQHLVDGRDMIIIRMPKDFPPFPQKLKFREPQREERICLVTTNFQTKSMSSMVSDTSCTFPSGDGIFWKHWIQTKDGQCGSPLVSTRDGFIVGIHSASNFTNTNNYFTSVPKNFMELLTNQEAQQWVSGWRLNADSVLWGGHKVFMVKPREPFQPVKEATQL [E223R] | 0.111 | 0.113 | 0.0997 | 0.0913 | 0.0577 | 0.0842 | 0.0933 | 0.0822 |  |  | 0.086 | 0.094 |  | 0.0967 | 0.0597 | 0.0972 | 0.0718 | 0.108 | 0.0849
6 | MGESLFKGPRDYNPISSSICHLTNESDGHTTSLYGIGFGPFIITNKHLFRRNNGTLVVQSLHGVFKVKDTTTLQQHLVDGRDMIIIRMPKDFPPFPQKLKFREPQREERICLVTTNFQTKSMSSMVSDTSCTFPSGDGIFWKHWIQTKDGQCGSPLVSTRDGFIVGIHSASNFTNTNNYFTSVPKNFMELLTNQEAQQWVSGWRLNADSVLWGGHKVFMVKQEEPFQPVKEATQL [P222Q] | 0.12 | 0.126 | 0.133 | 0.11 | 0.0976 | 0.108 | 0.0916 | 0.107 | 0.0987 | 0.0967 |  | 0.109 | 0.0994 | 0.107 |  | 0.107 |  |  | 
7 | MGESLFKGPRDYNPISSSICHLTNESDGHTTSLYGIGFGPFIITNKHLFRRNNGTLVVQSLHGVFKVKDTTTLQQHLVDGRDMIIIRMPKDFPPFPQKLKFREPQREERICLVTTNFQTKSMSSMVSDTSCTFPSGDGIFWKHWIQTKDGQCGSPLVSTRDGFIVGIHSASNFTNTNNYFTSVPKNFMELLTNQEAQQWVSGWRLNADSVLWWGHKVFMVKPEEPFQPVKEATQL [G213W] | 0.0602 | 0.0538 | 0.0497 | 0.0365 | 0.0538 | 0.0572 | 0.0532 | 0.0685 | 0.0594 | 0.0456 |  | 0.0498 | 0.054 | 0.0634 | 0.0514 | 0.0715 | 0.0654 |  | 0.0204
8 | MGESLFKGPRDYNPISSSICHLTNESDGHTTSLYGIGFGPFIITNKHLFRRNNGTLVVQSLHGVFKVKDTTTLQQHLVDGRDMIIIRMPKDFPPFPQKLKFREPQREERICLVTTNFQTKSMSSMVSDTSCTFPSGDGIFWKHWIQTKDGQCGSPLVSTRDGFIVGIHSASNFTNTNNYFTSVPKNFMELLTNQEAQQWVSGWRLNADSVLWGGHKVLMVKPEEPFQPVKEATQL [F218L] | 0.101 | 0.118 | 0.131 | 0.125 | 0.103 | 0.0859 |  |  | 0.108 |  | 0.0755 | 0.114 | 0.151 |  |  |  | 0.0931 |  | 0.0763
9 | MGESLFKGPRDYNPISSSICHLTNESDGHTTSLYGIGFGPFIITNKHLFRRNNGTLVVQSLHGVFKVKDTTTLQQHLVDGRDMIIIRMPKDFPPFPQKLKFREPQREERICLVTTNFQTKSMSSMVSDTSCTFPSGDGIFWKHWIQTKDGQCGSPLVSTRDGFIVGIHSASNFTNTNNYFTSVPKNFMELLTNQEAQQWVSGWRLNADSVLWGAHKVFMVKPEEPFQPVKEATQL [G214A] | 0.0924 | 0.0828 |  |  | 0.0819 | 0.0913 | 0.0923 | 0.0638 |  | 0.0846 |  | 0.0912 | 0.136 | 0.0796 |  |  | 0.0575 | 0.0938 | 0.0608

Reference: the supplement of paper PMC12217912
